In PMC6299665:

Columns and labels:
[1] = molecular target: human PD1-Fc-OX40L, Q15116; experiment: non-reducing SDS-PAGE with Western blot; purified protein, non-reducing and reducing conditions, with or without PNGase F; probed with anti-PD1, anti-Fc and anti-OX40L
[2] = molecular target: T1, human OX40, histidine-tagged recombinant (human), P43489; experiment: SPR; BioRAD ProteOn XPR36; His-tagged targets immobilised on Ni-activated HTG chip; analyte in PBS/Tween (0.005%) pH 7.0, 3 min injection, 5 min dissociation, flow 80-100 μl/min
T1 chain: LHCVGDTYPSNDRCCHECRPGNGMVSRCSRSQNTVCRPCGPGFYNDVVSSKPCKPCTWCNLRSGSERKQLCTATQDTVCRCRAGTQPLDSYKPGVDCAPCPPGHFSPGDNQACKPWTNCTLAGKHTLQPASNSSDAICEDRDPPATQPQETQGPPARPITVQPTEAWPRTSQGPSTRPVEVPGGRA

[3] = molecular target: T2, human PD-L2, histidine-tagged recombinant (human), Q9BQ51; experiment: as above
T2 chain: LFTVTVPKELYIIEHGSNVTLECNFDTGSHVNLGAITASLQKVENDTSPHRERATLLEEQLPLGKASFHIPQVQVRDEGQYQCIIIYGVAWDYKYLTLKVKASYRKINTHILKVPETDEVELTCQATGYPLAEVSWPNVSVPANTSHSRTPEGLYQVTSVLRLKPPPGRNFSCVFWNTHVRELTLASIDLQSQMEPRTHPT

[4] = molecular target: T3, human PD-L2 on CHO-K1 cells (human), Q9BQ51; experiment: flow cytometry on cells; stable cell lines CHOK1/hPD-L1, CHOK1/hPD-L2 and Jurkat/hOX40 incubated with PD1-Fc-OX40L; dose-response plots to derive EC50
T3 chain: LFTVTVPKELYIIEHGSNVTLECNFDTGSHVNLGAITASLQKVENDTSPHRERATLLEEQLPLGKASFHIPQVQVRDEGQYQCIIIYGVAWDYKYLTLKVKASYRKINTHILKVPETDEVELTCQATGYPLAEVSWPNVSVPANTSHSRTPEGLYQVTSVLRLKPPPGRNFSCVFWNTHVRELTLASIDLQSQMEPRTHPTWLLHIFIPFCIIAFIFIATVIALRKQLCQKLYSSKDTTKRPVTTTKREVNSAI

[5] = molecular target: T4, human OX40 on Jurkat or HeLa cells (human), P43489; experiment: as above
T4 chain: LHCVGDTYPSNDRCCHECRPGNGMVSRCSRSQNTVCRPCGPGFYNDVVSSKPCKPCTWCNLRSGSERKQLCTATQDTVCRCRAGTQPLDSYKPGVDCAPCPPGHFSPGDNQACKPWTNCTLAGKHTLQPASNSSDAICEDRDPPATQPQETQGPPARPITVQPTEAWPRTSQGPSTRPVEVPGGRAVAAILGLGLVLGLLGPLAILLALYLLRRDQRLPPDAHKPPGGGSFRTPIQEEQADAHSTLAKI

B1: human PD1-Fc-OX40L (Fc fusion)
chain: [omitted - about 400 residues with a human IgG4 Fc]QVSHRYPRIQSIKVQFTEYKKEKGFILTSQKEDEIMKVQNNSVIINCDGFYLISLKGYFSQEVNISLHYQKDEEPLFQLKKVRSVNSLMVASLTYKDKVYLNVTTDNTSLDDFHVNGGELILIHQNPGEFCVL
modifications: not checked
**Q.** How did the stoichiometry N [1] turn out when B1 was run?
**A.** 2

**Q.** And the Kd [2]?
**A.** 0.246 nM

**Q.** What about the Kd [3] of the same binder?
**A.** 1.24 nM

**Q.** And the EC50 [4]?
**A.** 47.7 nM

**Q.** What about the EC50 [5] of the same binder?
**A.** 6.28 nM
